# Data published in the supplement of paper PMC8728848.
# The other results are listed elsewhere or left out.
# B1: B725 (Bifidobacterium sp) (protein)
# chain: MNNTTRAVIATAAIGALLIPLAGCGNTTTSSGKTELTVWSWDASIDRAAKSFMKANPDITVKVSNVGSTEETYTALNNAAQAGSGLPDVTLIEYLAIPQFVHSDTLMDLSKVYNTAKLKDTFTPGTWNSVNINGGLYAMPADSGPMAYFYDKDVFDKAGISEPPTTWDEFYEDAKKIRATGSYITSDSGDAGLFNAMMWAMGGHAYKLNDDKLTINIAKDKGAQRFMDLWQKMRDEDLIDVHTKTWTDDWMKSLGDGSIASLISGAWMANNLLQGVPQATGKFRVALLPTIDGTPINGEYGGSGLAITKKIPDGKLDAAKKFVEYVTTNDEGIDARVSNGSFPATTKTLNQKDFLAKTTLRNTDGSDNEFFGGQKYNEIFSQAAKDVTGKWEFLPFEPYARSVYNDNMGSFFAGKTSFRTAADNWQKALKDYAKDQGFTVQ
# What was measured:
# Assay in all cases: glycan array binding signal (z-score within array); higher = stronger binding
# Settings in all cases: glycan notation: IUPAC condensed, linker removed
# [1] = target: Gal(b1-4)GlcNAc(b1-3)Gal(b1-4)GlcNAc(b1-3)Gal(b1-4)GlcNAc(b1-2)Man(a1-3)[Gal(b1-4)GlcNAc(b1-3)Gal(b1-4)GlcNAc(b1-3)Gal(b1-4)GlcNAc(b1-2)Man(a1-6)]Man(b1-4)GlcNAc(b1-4)GlcNAc
# Method in brief: (§1)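 Glycan array data came from 3228 arrays in the Consortium for Functional Glycomics database, and only arrays with an available protein sequence were kept. Glycan names were put into IUPAC-condensed notation, and columns mapping to the same glycan were averaged. The binding signal is a within-array Z-score, averaged across arrays of one protein sequence run at different concentrations or buffers and across linkers. A negative Z-score can be read as non-binding.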
# [2] = target: Gal(b1-4)GlcNAc(b1-3)Gal(b1-4)GlcNAc(b1-3)Gal(b1-4)GlcNAc(b1-2)Man(a1-3)[Gal(b1-4)GlcNAc(b1-3)Gal(b1-4)GlcNAc(b1-3)Gal(b1-4)GlcNAc(b1-2)Man(a1-6)]Man(b1-4)GlcNAc(b1-4)[Fuc(a1-6)]GlcNAc
# Method in brief: as §1
# [3] = target: Gal(b1-4)GlcNAc(b1-3)Gal(b1-4)GlcNAc(b1-3)Gal(b1-4)GlcNAc(b1-2)[Gal(b1-4)GlcNAc(b1-3)Gal(b1-4)GlcNAc(b1-3)Gal(b1-4)GlcNAc(b1-6)]Man(a1-6)[Gal(b1-4)GlcNAc(b1-3)Gal(b1-4)GlcNAc(b1-3)Gal(b1-4)GlcNAc(b1-2)Man(a1-3)]Man(b1-4)GlcNAc(b1-4)[Fuc(a1-6)]GlcNAc
# Method in brief: as §1
# [4] = target: Gal(b1-4)GlcNAc(b1-3)Gal(b1-4)GlcNAc(b1-3)Gal(b1-4)GlcNAc(b1-3)Gal(b1-4)GlcNAc(b1-2)Man(a1-3)[Gal(b1-4)GlcNAc(b1-3)Gal(b1-4)GlcNAc(b1-3)Gal(b1-4)GlcNAc(b1-3)Gal(b1-4)GlcNAc(b1-2)Man(a1-6)]Man(b1-4)GlcNAc(b1-4)GlcNAc
# Method in brief: as §1
# [5] = target: Gal(b1-4)GlcNAc(b1-3)Gal(b1-4)GlcNAc(b1-3)Gal(b1-4)GlcNAc(b1-3)Gal(b1-4)GlcNAc(b1-2)Man(a1-3)[Gal(b1-4)GlcNAc(b1-3)Gal(b1-4)GlcNAc(b1-3)Gal(b1-4)GlcNAc(b1-3)Gal(b1-4)GlcNAc(b1-2)Man(a1-6)]Man(b1-4)GlcNAc(b1-4)[Fuc(a1-6)]GlcNAc
# Method in brief: as §1
# [6] = target: Gal(b1-4)GlcNAc(b1-3)Gal(b1-4)GlcNAc(b1-3)Gal(b1-4)GlcNAc(b1-3)Gal(b1-4)GlcNAc(b1-2)[Gal(b1-4)GlcNAc(b1-3)Gal(b1-4)GlcNAc(b1-3)Gal(b1-4)GlcNAc(b1-3)Gal(b1-4)GlcNAc(b1-6)]Man(a1-6)[Gal(b1-4)GlcNAc(b1-3)Gal(b1-4)GlcNAc(b1-3)Gal(b1-4)GlcNAc(b1-3)Gal(b1-4)GlcNAc(b1-2)Man(a1-3)]Man(b1-4)GlcNAc(b1-4)[Fuc(a1-6)]GlcNAc
# Method in brief: as §1
# [7] = target: Gal(b1-4)GlcNAc(b1-3)Gal(b1-4)GlcNAc(b1-3)Gal(b1-4)GlcNAc(b1-3)Gal(b1-4)GlcNAc(b1-3)Gal(b1-4)GlcNAc(b1-2)Man(a1-3)[Gal(b1-4)GlcNAc(b1-3)Gal(b1-4)GlcNAc(b1-3)Gal(b1-4)GlcNAc(b1-3)Gal(b1-4)GlcNAc(b1-3)Gal(b1-4)GlcNAc(b1-2)Man(a1-6)]Man(b1-4)GlcNAc(b1-4)GlcNAc
# Method in brief: as §1
# [8] = target: Gal(b1-4)GlcNAc(b1-3)Gal(b1-4)GlcNAc(b1-3)Gal(b1-4)GlcNAc(b1-3)Gal(b1-4)GlcNAc(b1-3)Gal(b1-4)GlcNAc(b1-2)Man(a1-3)[Gal(b1-4)GlcNAc(b1-3)Gal(b1-4)GlcNAc(b1-3)Gal(b1-4)GlcNAc(b1-3)Gal(b1-4)GlcNAc(b1-3)Gal(b1-4)GlcNAc(b1-2)Man(a1-6)]Man(b1-4)GlcNAc(b1-4)[Fuc(a1-6)]GlcNAc
# Method in brief: as §1
# [9] = target: Gal(b1-4)GlcNAc(b1-3)Gal(b1-4)GlcNAc(b1-3)Gal(b1-4)GlcNAc(b1-3)Gal(b1-4)GlcNAc(b1-3)Gal(b1-4)GlcNAc(b1-2)[Gal(b1-4)GlcNAc(b1-3)Gal(b1-4)GlcNAc(b1-3)Gal(b1-4)GlcNAc(b1-3)Gal(b1-4)GlcNAc(b1-3)Gal(b1-4)GlcNAc(b1-6)]Man(a1-6)[Gal(b1-4)GlcNAc(b1-3)Gal(b1-4)GlcNAc(b1-3)Gal(b1-4)GlcNAc(b1-3)Gal(b1-4)GlcNAc(b1-3)Gal(b1-4)GlcNAc(b1-2)Man(a1-3)]Man(b1-4)GlcNAc(b1-4)[Fuc(a1-6)]GlcNAc
# Method in brief: as §1
# [10] = target: Gal(b1-4)GlcNAc(b1-3)Gal(b1-4)GlcNAc(b1-3)Gal(b1-4)GlcNAc(b1-3)Gal(b1-4)GlcNAc(b1-3)Gal(b1-4)GlcNAc(b1-3)Gal(b1-4)GlcNAc(b1-2)Man(a1-3)[Gal(b1-4)GlcNAc(b1-3)Gal(b1-4)GlcNAc(b1-3)Gal(b1-4)GlcNAc(b1-3)Gal(b1-4)GlcNAc(b1-3)Gal(b1-4)GlcNAc(b1-3)Gal(b1-4)GlcNAc(b1-2)Man(a1-6)]Man(b1-4)GlcNAc(b1-4)GlcNAc
# Method in brief: as §1
# [11] = target: Gal(b1-4)GlcNAc(b1-3)Gal(b1-4)GlcNAc(b1-3)GalNAc
# Method in brief: as §1
# [12] = target: Gal(b1-4)GlcNAc(b1-3)Gal(b1-4)GlcNAc(b1-3)[Gal(b1-4)GlcNAc(b1-3)Gal(b1-4)GlcNAc(b1-6)]GalNAc
# Method in brief: as §1
# [13] = target: Gal(b1-4)GlcNAc(b1-3)Gal(b1-4)GlcNAc(b1-6)[Gal(b1-3)]GalNAc
# Method in brief: as §1
# [14] = target: Gal(b1-4)GlcNAc(b1-3)Gal(b1-4)[Fuc(a1-3)]GlcNAc(b1-3)Gal(b1-4)[Fuc(a1-3)]GlcNAc
# Method in brief: as §1
# [15] = target: Gal(b1-4)GlcNAc(b1-3)GalNAc
# Method in brief: as §1
# [16] = target: Gal(b1-4)GlcNAc(b1-3)[Fuc(a1-3)GlcNAc(b1-6)]Gal(b1-4)Glc
# Method in brief: as §1
# [17] = target: Gal(b1-4)GlcNAc(b1-3)[Gal(b1-4)GlcNAc(b1-6)]Gal(b1-4)GlcNAc
# Method in brief: as §1
# [18] = target: Gal(b1-4)GlcNAc(b1-3)[GlcNAc(b1-6)]Gal(b1-4)GlcNAc
# Method in brief: as §1
# [19] = target: Gal(b1-4)GlcNAc(b1-6)Gal(b1-4)GlcNAc
# Method in brief: as §1
binder,measurement,setting,value
B1,glycan array binding signal (z-score),[1],5.11
same,glycan array binding signal (z-score),[2],4.38
same,glycan array binding signal (z-score),[3],7.51
same,glycan array binding signal (z-score),[4],5.3
same,glycan array binding signal (z-score),[5],4.85
same,glycan array binding signal (z-score),[6],6.73
same,glycan array binding signal (z-score),[7],2.12
same,glycan array binding signal (z-score),[8],4
same,glycan array binding signal (z-score),[9],5.49
same,glycan array binding signal (z-score),[10],8.21
same,glycan array binding signal (z-score),[11],0.618
same,glycan array binding signal (z-score),[12],1.47
same,glycan array binding signal (z-score),[13],0.746
same,glycan array binding signal (z-score),[14],2.62
same,glycan array binding signal (z-score),[15],0.358
same,glycan array binding signal (z-score),[16],-0.187
same,glycan array binding signal (z-score),[17],-0.233
same,glycan array binding signal (z-score),[18],-0.231
same,glycan array binding signal (z-score),[19],-0.093
